# Laboratory results from the supplement of paper PMC8728848.
# This is one part of the list.
# B1: MSMEG3662-2a (Mycobacterium smegmatis), A0QYH7_MYCS2 (protein)
# chain: MGDTLTAGQKLERGGSLQSGNGAYTLTLQDDGNLVLYARDKAVWSTGTNGQDVVRAEVQTDGNFVLYTAEKPVWHTDTKGKKEVKLVLQDDRNLVLYAKDGPAWSSKTDTTEPPPPAPEPEKEAEVAPAAAEEAAPAPVAEPAPAEPAPAAPPPAPPAPRTYTVVSGDTLWAIAERFYGDGSKYQQIADASGIANPDLIHPGQVLTIP
# Key:
# Assay in all cases: glycan array binding signal (z-score within array); higher = stronger binding
# Details in all cases: glycan notation: IUPAC condensed, linker removed
# [1] = molecular target: Gal6S(b1-4)Glc
# How it was run: (§1)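 Arrays were curated from the Consortium for Functional Glycomics database, 3228 in total, and kept only where the protein sequence was available. Binding is expressed as a within-array Z-score. This score was averaged across arrays of the same protein sequence at different concentrations or buffers and across linkers, and negative values can be read as non-binding.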
# [2] = molecular target: Gal6S(b1-4)Glc6S
# How it was run: as §1
# [3] = molecular target: Gal6S(b1-4)GlcNAc
# How it was run: as §1
# [4] = molecular target: Gal6S(b1-4)GlcNAc6S
# How it was run: as §1
# [5] = molecular target: GalNAc(a1-3)Gal
# How it was run: as §1
# [6] = molecular target: GalNAc(a1-3)GalNAc
# How it was run: as §1
# [7] = molecular target: GalNAc(a1-3)GalNAc(b1-3)Gal(a1-4)Gal(b1-4)Glc
# How it was run: as §1
# [8] = molecular target: GalNAc(a1-3)GalNAc(b1-3)Gal(a1-4)Gal(b1-4)GlcNAc
# How it was run: as §1
# [9] = molecular target: GalNAc(b1-3)Gal
# How it was run: as §1
# [10] = molecular target: GalNAc(b1-3)Gal(a1-4)Gal(b1-4)GlcNAc
# How it was run: as §1
# [11] = molecular target: GalNAc(b1-3)Gal(a1-4)Gal(b1-4)GlcNAc(b1-3)Gal(b1-4)Glc
# How it was run: as §1
# [12] = molecular target: GalNAc(b1-3)Gal(a1-6)Gal(b1-4)Glc
# How it was run: as §1
# [13] = molecular target: GalNAc(b1-3)GalNAc
# How it was run: as §1
# [14] = molecular target: GalNAc(b1-3)GlcNAc
# How it was run: as §1
# [15] = molecular target: GalNAc(b1-4)Gal(b1-4)Glc
# How it was run: as §1
# [16] = molecular target: GalNAc(b1-4)GlcNAc
# How it was run: as §1
# [17] = molecular target: GalNAc(b1-4)GlcNAc(b1-2)Man
# How it was run: as §1
# [18] = molecular target: GalNAc(b1-4)GlcNAc(b1-2)Man(a1-3)[GalNAc(b1-4)GlcNAc(b1-2)Man(a1-6)]Man(b1-4)GlcNAc(b1-4)GlcNAc
# How it was run: as §1
# [19] = molecular target: GalNAc(b1-4)GlcNAc(b1-3)GalNAc(b1-4)GlcNAc
# How it was run: as §1
# [20] = molecular target: GalNAc(b1-4)GlcNAc6S
# How it was run: as §1
# [21] = molecular target: GalNAc(b1-6)GalNAc
# How it was run: as §1
# [22] = molecular target: GalNAc3S(b1-4)GlcNAc
# How it was run: as §1
# [23] = molecular target: GalNAc3S(b1-4)GlcNAc3S
# How it was run: as §1
# [24] = molecular target: GalNAc3S(b1-4)[Fuc(a1-3)]GlcNAc
# How it was run: as §1
# [25] = molecular target: GalNAc4S6S(b1-4)GlcNAc
# How it was run: as §1
# [26] = molecular target: GalNAc6S(b1-4)GlcNAc
# How it was run: as §1
# [27] = molecular target: Glc(a1-4)Glc
# How it was run: as §1
# [28] = molecular target: Glc(a1-4)Glc(a1-4)Glc(a1-4)Glc
# How it was run: as §1
# [29] = molecular target: Glc(a1-6)Glc(a1-6)Glc
# How it was run: as §1
# [30] = molecular target: Glc(a1-6)Glc(a1-6)Glc(a1-6)Glc
# How it was run: as §1
# [31] = molecular target: Glc(b1-4)Glc
# How it was run: as §1
# [32] = molecular target: Glc(b1-6)Glc
# How it was run: as §1
# [33] = molecular target: GlcA(b1-3)Gal
# How it was run: as §1
# [34] = molecular target: GlcA(b1-3)GlcNAc
# How it was run: as §1
# [35] = molecular target: GlcA(b1-6)Gal
# How it was run: as §1
# [36] = molecular target: GlcA3S(b1-3)Gal(b1-4)GlcNAc(b1-2)Man
# How it was run: as §1
# [37] = molecular target: GlcA3S(b1-3)Gal(b1-4)GlcNAc(b1-3)Gal(b1-4)Glc
# How it was run: as §1
# [38] = molecular target: GlcNAc(a1-3)Gal(b1-4)GlcNAc
# How it was run: as §1
# [39] = molecular target: GlcNAc(a1-4)Gal(b1-3)GlcNAc
# How it was run: as §1
# [40] = molecular target: GlcNAc(a1-4)Gal(b1-4)GalNAc
# How it was run: as §1
# [41] = molecular target: GlcNAc(a1-4)Gal(b1-4)GlcNAc
# How it was run: as §1
# [42] = molecular target: GlcNAc(a1-4)Gal(b1-4)GlcNAc(b1-3)Gal(b1-4)Glc
# How it was run: as §1
# [43] = molecular target: GlcNAc(a1-4)Gal(b1-4)GlcNAc(b1-3)Gal(b1-4)GlcNAc
# How it was run: as §1
# [44] = molecular target: GlcNAc(a1-4)Gal(b1-4)GlcNAc(b1-3)Gal(b1-4)GlcNAc(b1-3)Gal(b1-4)GlcNAc
# How it was run: as §1
# [45] = molecular target: GlcNAc(a1-4)Gal(b1-4)GlcNAc(b1-3)Gal(b1-4)[Fuc(a1-3)]GlcNAc(b1-3)Gal(b1-4)[Fuc(a1-3)]GlcNAc
# How it was run: as §1
binder,measurement,setting,value
B1,glycan array binding signal (z-score),[1],0.04
same,glycan array binding signal (z-score),[2],-0.137
same,glycan array binding signal (z-score),[3],-0.118
same,glycan array binding signal (z-score),[4],-0.162
same,glycan array binding signal (z-score),[5],-0.049
same,glycan array binding signal (z-score),[6],-0.185
same,glycan array binding signal (z-score),[7],-0.072
same,glycan array binding signal (z-score),[8],-0.099
same,glycan array binding signal (z-score),[9],-0.063
same,glycan array binding signal (z-score),[10],-0.177
same,glycan array binding signal (z-score),[11],-0.142
same,glycan array binding signal (z-score),[12],-0.074
same,glycan array binding signal (z-score),[13],-0.091
same,glycan array binding signal (z-score),[14],-0.175
same,glycan array binding signal (z-score),[15],-0.071
same,glycan array binding signal (z-score),[16],0.021
same,glycan array binding signal (z-score),[17],-0.076
same,glycan array binding signal (z-score),[18],-0.147
same,glycan array binding signal (z-score),[19],-0.047
same,glycan array binding signal (z-score),[20],-0.096
same,glycan array binding signal (z-score),[21],-0.152
same,glycan array binding signal (z-score),[22],-0.073
same,glycan array binding signal (z-score),[23],0.002
same,glycan array binding signal (z-score),[24],-0.193
same,glycan array binding signal (z-score),[25],0.137
same,glycan array binding signal (z-score),[26],-0.09
same,glycan array binding signal (z-score),[27],-0.086
same,glycan array binding signal (z-score),[28],-0.049
same,glycan array binding signal (z-score),[29],-0.136
same,glycan array binding signal (z-score),[30],-0.182
same,glycan array binding signal (z-score),[31],0.015
same,glycan array binding signal (z-score),[32],-0.107
same,glycan array binding signal (z-score),[33],-0.166
same,glycan array binding signal (z-score),[34],-0.149
same,glycan array binding signal (z-score),[35],-0.102
same,glycan array binding signal (z-score),[36],-0.066
same,glycan array binding signal (z-score),[37],-0.189
same,glycan array binding signal (z-score),[38],-0.054
same,glycan array binding signal (z-score),[39],-0.19
same,glycan array binding signal (z-score),[40],-0.09
same,glycan array binding signal (z-score),[41],0.026
same,glycan array binding signal (z-score),[42],-0.07
same,glycan array binding signal (z-score),[43],-0.131
same,glycan array binding signal (z-score),[44],-0.091
same,glycan array binding signal (z-score),[45],0.237
